Here are results for 1 molecule from patent publication US20170082635A1 (University of California, published 2017).

This assay has as its target T1, Neurofilament medium polypeptide (human, UniProt P07197 2-916).
T1 construct: whole, on cells; endogenous, cross-linked inside intact HEK 293 cells; also called NFM; P07197
T1 sequence (looked up): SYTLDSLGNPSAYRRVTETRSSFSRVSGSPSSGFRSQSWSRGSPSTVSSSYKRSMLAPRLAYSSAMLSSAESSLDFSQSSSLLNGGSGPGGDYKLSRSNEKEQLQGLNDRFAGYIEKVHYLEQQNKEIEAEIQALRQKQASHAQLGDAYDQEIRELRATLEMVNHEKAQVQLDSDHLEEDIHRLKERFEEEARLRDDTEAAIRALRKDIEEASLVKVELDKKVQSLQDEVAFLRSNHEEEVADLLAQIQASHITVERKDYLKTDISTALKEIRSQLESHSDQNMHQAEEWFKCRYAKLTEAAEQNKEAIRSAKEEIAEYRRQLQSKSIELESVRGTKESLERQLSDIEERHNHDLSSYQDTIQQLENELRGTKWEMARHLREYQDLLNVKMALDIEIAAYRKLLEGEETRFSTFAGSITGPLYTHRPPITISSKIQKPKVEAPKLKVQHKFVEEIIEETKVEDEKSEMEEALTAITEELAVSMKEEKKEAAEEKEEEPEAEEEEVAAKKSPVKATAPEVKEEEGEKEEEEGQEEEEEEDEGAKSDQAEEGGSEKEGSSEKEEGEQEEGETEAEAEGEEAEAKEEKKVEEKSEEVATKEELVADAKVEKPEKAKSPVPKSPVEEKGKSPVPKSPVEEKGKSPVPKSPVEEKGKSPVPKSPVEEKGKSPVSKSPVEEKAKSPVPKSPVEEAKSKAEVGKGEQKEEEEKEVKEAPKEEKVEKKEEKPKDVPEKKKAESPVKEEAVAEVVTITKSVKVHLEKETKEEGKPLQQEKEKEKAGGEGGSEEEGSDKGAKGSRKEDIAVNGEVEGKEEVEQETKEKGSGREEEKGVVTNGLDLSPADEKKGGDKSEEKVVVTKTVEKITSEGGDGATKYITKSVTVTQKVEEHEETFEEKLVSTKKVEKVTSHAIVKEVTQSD
Briefly: in vivo azide-A-DSBSO XL-MS, HEK 293; column Inter-subunit of Table 10.

B1: Vimentin (other)
chain: not shown
notes: whole, on cells; endogenous, cross-linked inside intact HEK 293 cells; also called […]
In the case of B1, the binding result was “binds”.
